From PubChem BioAssay (NCATS)
This list was built around the results that the source calls inconclusive (neither active nor inactive); the mix of calls is not that of the screen. Potencies beside an inconclusive call are fits to weak or partial responses and may not hold up. The source made the active and inactive calls. Calls follow the shape of the dose curve; as a rule, active = well fitted curve in the direction sought with a large enough effect; inconclusive = small, poorly fitted or top-dose-only effect, or another doubt; inactive = no such curve, though single readings can be large; an effect the other way counts as inactive or inconclusive.

Tests used:
[1] = molecular target: Cellular tumor antigen p53 (Homo sapiens) (UniProt P04637); assay: Primary qHTS for small molecule compounds that upregulate eGFP-tagged delta133p53alpha (in N-terminal) cells. (AID 2060322); conditions: NCI-H358 eGFP-delta133p53alpha fluorescence, 24 h; activation: hits give high values;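 also: cells pre-induced with doxycycline then dosed without doxycycline; nearly all actives have a fitted effect of over 75% in size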;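 as to activation: 0% = DMSO vehicle and 100% = reference activator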
Method in brief: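 NCI-H358 cells pre-induced 24 h with 10 ng/ml doxycycline for eGFP-delta133p53alpha, plated dox-free and exposed 24 h at 37C to titrated compounds. Fixed, Hoechst-stained; gated GFP peak intensity by laser scanning cytometry, normalized to DMSO (0%) and 57.5 uM 5-azacytidine (100%).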

[2] = BET inhibitor-based combinations targeting novel dependencies in MECOM-rearranged (r) AML: OCI-AML3 cell line (AID 2202232); conditions: CellTiter-Glo luminescence, 48 h; Potency: OCI-AML3 viability; viability (% of control): at 46 µM (top of the series); also: nearly all actives have a fitted effect of over 35% in size;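 as to viability (% of control): plate controls were DMSO vehicle wells for no effect and wells without cells for full effect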
Method in brief: (§1)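 500 cells/well; 11-pt dose curve; 48 h, standard incubator; CellTiter-Glo luminescence after 15 min RT; DMSO/empty-well normalization; AUC plus Z-AUC (mean-centered within each line).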

[3] = BET inhibitor-based combinations targeting novel dependencies in MECOM-rearranged (r) AML: UCSD-AML1 cell line (AID 2202235); conditions: UCSD-AML1 AML cells viability, CellTiter-Glo, 48 h; viability (% of control): at 46 µM (top of the series); also: nearly all actives have a fitted effect of over 40% in size;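 as to viability (% of control): plate controls were DMSO vehicle wells for no effect and blank wells for full effect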
Method in brief: (§2)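 Cells were plated at 500 per well and exposed to each drug across an 11-point dose range for 48 hr at standard incubator conditions. Viability was read by CellTiter-Glo luminescence, and activity was expressed as AUC and per-cell-line Z-transformed AUC.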

[4] = BET inhibitor-based combinations targeting novel dependencies in MECOM-rearranged (r) AML: AML-191 cell line (AID 2202236; also: nearly all actives have a fitted effect of over 35% in size;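 as to viability (% of control): plate controls were vehicle wells for no effect and wells without cells for full effect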)
Method in brief: as §1

[5] = BET inhibitor-based combinations targeting novel dependencies in MECOM-rearranged (r) AML: AML-194 cell line (AID 2202237; also: nearly all actives have a fitted effect of over 40% in size)
Method in brief: as §1

[6] = BET inhibitor-based combinations targeting novel dependencies in MECOM-rearranged (r) AML: HNT-34 cell line (AID 2202234); also: nearly all actives have a fitted effect of over 35% in size
Method in brief: as §2
Potency is read from the fitted curve at half-maximal effect; tags tell the direction and shape of the fitted curve.

UniProt P04637, sequence (P04637 whole entry, looked up): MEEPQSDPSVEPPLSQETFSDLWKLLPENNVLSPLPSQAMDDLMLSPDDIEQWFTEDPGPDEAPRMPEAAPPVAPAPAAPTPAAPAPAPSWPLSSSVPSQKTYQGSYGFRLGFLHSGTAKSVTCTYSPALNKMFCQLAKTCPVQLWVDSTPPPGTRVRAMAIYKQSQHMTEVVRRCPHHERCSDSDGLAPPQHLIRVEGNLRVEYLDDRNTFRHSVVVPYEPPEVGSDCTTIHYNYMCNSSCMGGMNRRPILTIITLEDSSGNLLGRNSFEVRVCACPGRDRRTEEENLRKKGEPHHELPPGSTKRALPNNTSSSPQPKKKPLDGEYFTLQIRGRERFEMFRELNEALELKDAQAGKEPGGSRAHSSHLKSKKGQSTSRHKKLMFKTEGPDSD

| Structure (SMILES) | Potency [1] | Potency [2] | Potency [3] | Potency [4] | Potency [5] | activation [1] | Potency [6] |
| --- | --- | --- | --- | --- | --- | --- | --- |
| CNCCN(C)Cc1cn[nH]c1-c1ccc(OC2CC(OCCC3CCOCC3)C2)cc1 (configuration not stated) | inconclusive: 30.5 µM [activator, single point] | inconclusive: 20.9 µM [inhibitor, partial curve, poor fit] | inconclusive: 26.3 µM [inhibitor, partial curve, poor fit] | inconclusive: 16.6 µM [inhibitor, partial curve, poor fit] | inconclusive: 16.6 µM [inhibitor, partial curve, poor fit] |  |  |
| CCN1CCN(C(=O)N[C@@H](C(=O)N[C@@H]2C(=O)N3C(C(=O)O)=C(CSc4nnnn4C)CS[C@H]23)c2ccc(O)cc2)C(=O)C1=O |  | inactive |  | inactive |  | inactive: -7.34% |  |
| CC(C)(C)c1nc2c3cc[nH]c(=O)c3c3cc(F)ccc3c2[nH]1 | inconclusive: 1.37 µM [activator, full curve, poor fit] | inconclusive: 1.48 µM [inhibitor, full curve] |  |  | inconclusive: 0.934 µM [inhibitor, full curve] |  | inconclusive: 0.833 µM [inhibitor, full curve] |
| COc1ccc2cccc(CCNC(C)=O)c2c1 |  | inactive | inactive | inactive |  | inactive: 3.03% |  |
| CN(C)CC[C@H](CSc1ccccc1)Nc1ccc(S(=O)(=O)NC(=O)c2ccc(N3CCN(Cc4ccccc4-c4ccc(Cl)cc4)CC3)cc2)cc1[N+](=O)[O-] | inconclusive: 0.968 µM [activator, full curve, poor fit] | inconclusive: 5.9 µM [inhibitor, full curve] |  |  | active: 1.86 µM |  |  |
| O=C(N[C@H]1CCC[C@H](CO)C1)C1CCN(c2nc3cc(Cl)c(-c4ccc(Cl)cc4)cc3o2)CC1 | inconclusive: 23.9 µM [activator, single point] | inconclusive: 20.9 µM [inhibitor, partial curve, poor fit] |  | inconclusive: 29.5 µM [inhibitor, single point] | inconclusive: 37.2 µM [inhibitor, single point] |  | inconclusive: 20.9 µM [inhibitor, partial curve] |
| Cc1cc(Nc2cc(NC(=O)c3c(Cl)cccc3Cl)ccn2)nc(N)n1 | active: 34.3 µM | inconclusive: 0.833 µM [inhibitor, full curve, poor fit] |  |  | active: 0.332 µM |  |  |
